The source of these data is patent publication US5550119A, “Phosphono substituted tetrazole derivatives as ECE inhibitors” (Ciba-Geigy Corporation, priority 1995, dated 1996).

The test has as its system human ECE (recombinant ECE-1 and ECE-2). As to conditions: recombinant ECE-1 and ECE-2 from transfected CHO cells.

Usually IC50 stands for the point on the concentration scale where inhibition reaches its midpoint. For the compound `O=P(O)(O)CN[C@@H](Cc1ccc(-c2ccccc2)cc1)c1nnn[nH]1` [(S)-[2-(Biphenyl-4-yl)-1-(1H-tetrazol-5-yl)-ethylamino]-methylphosphonic acid], the 50% inhibitory concentration (IC50) is around 100 nM.
